Reference: PubChem BioAssay AID686979 (National Center for Advancing Translational Sciences (NCATS), 2013)
In all, about 420,000 compounds went through this assay and about 50,000 (12%) were called active. This list was built around the results that the source calls inconclusive (neither active nor inactive); the mix of calls is not that of the screen. Calls come from the whole dose curve; as a rule, active = well fitted inhibition curve with a large enough effect; inconclusive = small, poorly fitted or top-dose-only effect; inactive = flat fitted curve, though single readings scatter. Potencies of inconclusive entries are left out as doubtful fits.

experiment: qHTS for Inhibitors of human tyrosyl-DNA phosphodiesterase 1 (TDP1): qHTS in cells in presence of CPT; conditions: chicken DT40 Tdp1-/-;hTDP1 cells + 20 nM CPT, ATP luminescence, 48 h; activity change, negative = growth inhibition: at 46.2 µM (top of the series); note: nearly all actives have a fitted effect of over 55% in size
Procedure, shortened: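 Chicken DT40 Tdp1-/- cells complemented with human TDP1, 400 cells/well, exposed to compounds plus 20 nM camptothecin for at least 48 h at 37 C; viability read as ATP content by CellTiter-Glo luminescence.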
% is set by controls: 0 for no effect and ±100 for the full control effect; potency is the fitted concentration of half-maximal effect; tags give direction and shape of the fitted curve.

Question: For CSCCC(NC(=O)c1ccccc1Cl)C(=O)NCCOc1ccccc1 (stereo not drawn), which Potency is on record?
Answer: inconclusive [inhibitor, single point]

Question: Which Potency does the source give for Nn1c(Cc2cccc3ccccc23)nnc1SCC(=O)N1CC(=O)Nc2ccccc21 here?
Answer: inactive

Question: With COc1ccccc1NC(=O)CC(NC1CCCCC1)C(=O)O (stereo not drawn) as the compound, how does the Potency read?
Answer: inactive

Question: For Cc1ccc(S(=O)(=O)/N=C(\N)Nc2nc(C)c3ccc(C)cc3n2)cc1, which Potency is on record?
Answer: active: 20.6 µM

Question: For CC(=O)Nc1cccc(-c2cc3c(c4c2ccn4C)C2CCC3O2)c1 (stereo not drawn), which Potency is on record?
Answer: inconclusive [inhibitor, single point]

Question: Which Potency does the source give for O=C1C=CC(=O)N1c1ccc(-c2nc3ccccc3o2)cc1 here?
Answer: active: 1.84 µM

Question: With CC(C)C(=O)Nc1ccc(S(=O)(=O)N2CCC(c3nc4ccccc4[nH]3)CC2)cc1 as the compound, how does the Potency read?
Answer: inconclusive [inhibitor, partial curve, poor fit]

Question: For Cc1ccc(C(=O)NCc2ccc(F)cc2)cc1NC(=O)c1nsc2ccccc12, which Potency is on record?
Answer: inconclusive [inhibitor, single point]

Question: Which Potency does the source give for COc1cc(OC)cc(C(=O)Nc2nc(CC(=O)NCc3ccc(F)cc3)cs2)c1 here?
Answer: active: 11.6 µM

Question: Which Potency does the source give for CCN1C=CC(=C2C(=O)c3ccccc3C2=O)C=C1 here?
Answer: active: 16.4 µM

Question: Which Potency does the source give for CC(=O)Nc1ccc(SCC(=O)Nc2ccccc2-c2ccccc2)cc1 here?
Answer: inconclusive [inhibitor, partial curve, poor fit]

Question: With O=C(Cc1c(Cl)cccc1Cl)Nc1ccncc1Cl as the compound, how does the Potency read?
Answer: inconclusive [inhibitor, partial curve]

Question: For Cc1sc2ncnc(NCc3ccco3)c2c1C, which Potency is on record?
Answer: active: 10.3 µM

Question: Which Potency does the source give for C/C(=N/NS(=O)(=O)c1ccc(Br)cc1)c1ccc(C)o1 here?
Answer: inactive

Question: With CC(NS(=O)(=O)c1ccc(Br)cc1)C(c1cccs1)N1CCN(C)CC1 (stereo not drawn) as the compound, how does the Potency read?
Answer: inconclusive [inhibitor, single point]

Question: Which Potency does the source give for Fc1c(F)c(F)c(N=Cc2ccc3ncccc3c2)c(F)c1F here?
Answer: inactive

Question: For Cn1cc(S(=O)(=O)c2ccccc2)c(=O)c2cc(F)c(N3CCCCCC3)cc21, which Potency is on record?
Answer: inconclusive [inhibitor, single point]

Question: Which Potency does the source give for Cc1nnc2sc(-c3ccc(-c4ccc(Cl)c(C(F)(F)F)c4)o3)nn12 here?
Answer: inconclusive [inhibitor, single point]

Question: Which Potency does the source give for COc1ccc(OC)c(CNC(=O)Cn2nc(C)c3c(C)n(-c4ccc(C)cc4)nc3c2=O)c1 here?
Answer: inconclusive [inhibitor, single point]

Question: Which Potency does the source give for O=[N+]([O-])/C(C(Cl)=C(Cl)Cl)=C1\Nc2ccccc2O1 here?
Answer: inactive

Question: Which Potency does the source give for CCOc1ccc(NC(=O)COC(=O)CCC(=O)c2cccs2)cc1 here?
Answer: inactive

Question: Which Potency does the source give for O=C1NC2(CCCCCC2)C(=O)N1Cc1ccc(Cl)cc1Cl here?
Answer: inactive

Question: With CCCCNC(=O)Nc1nnc(-c2ccc(OCC)cc2)o1 as the compound, how does the Potency read?
Answer: inconclusive [inhibitor, single point]

Question: Which Potency does the source give for COc1ccc(-c2ccc(N(C)C)cc2)cc1[C@H]1[C@H]2C=CC[C@@H](C)[C@@H]2C(=O)N1Cc1ccccc1 here?
Answer: active: 11.6 µM

Question: For COc1cc([N+](=O)[O-])cc2sc(NC(C)=O)nc12, which Potency is on record?
Answer: inconclusive [inhibitor, single point]

Question: For c1ccc(CN2CCN(CCCNc3ccc4nnc(-c5ccccc5)n4n3)CC2)cc1, which Potency is on record?
Answer: inconclusive [inhibitor, single point]

Question: Which Potency does the source give for CC(=O)Nc1cccc(C(=O)N/N=C/c2cccnc2)c1 here?
Answer: inconclusive [inhibitor, partial curve]

Question: Which Potency does the source give for Cn1c(=O)n(C)c2cc(N3CCCCC3)c(NC(=O)c3ccc(C(C)(C)C)cc3)cc21 here?
Answer: inconclusive [inhibitor, single point]

Question: Which Potency does the source give for Cc1cc(C)n(CC(=O)N/N=C/c2ccccn2)n1 here?
Answer: inactive

Question: Which Potency does the source give for COc1cc(CNCCN2CCOCC2)ccc1OCc1cccc(Cl)c1 here?
Answer: inconclusive [inhibitor, single point]

Question: Which Potency does the source give for C(=Nc1ccc(/C=C/c2ccnc3ccccc23)cc1)c1ccc2c(c1)OCO2 here?
Answer: inconclusive [inhibitor, single point]

Question: For COc1ccc(/C=C/C(=O)NC(=S)NNC(=O)c2cnccn2)cc1, which Potency is on record?
Answer: active: 2.91 µM

Question: With CC(C)(C)NC(=O)C(c1ccc(-c2ccccc2)cc1)N(C[C@H]1CC[C@@H]([C@@H]2CC[C@H](CO)O2)O1)C(=O)c1ccccc1F (stereo partly drawn) as the compound, how does the Potency read?
Answer: active: 29.1 µM

Question: With COc1ccc(CNC(=O)CCc2nc(-c3ccc(C)cc3)no2)c(OC)c1 as the compound, how does the Potency read?
Answer: inconclusive [inhibitor, partial curve]

Question: With Cn1c(SCC(=O)N2CCc3ccccc32)nc2cccnc21 as the compound, how does the Potency read?
Answer: active: 16.4 µM

Question: For O=C(NC(=S)Nc1ccc(CN2CCCCC2)cc1)c1ccco1, which Potency is on record?
Answer: inactive

Question: Which Potency does the source give for N#Cc1cccc(-c2nccc(NCc3cccs3)n2)c1 here?
Answer: inconclusive [inhibitor, single point]

Question: Which Potency does the source give for COc1ccc(COc2cc(-c3cccc(OC)c3)nc3ccc(NC(=O)C(C)C)cc23)cc1 here?
Answer: active: 4.61 µM

Question: With Fc1ccccc1/C=C1\CCCC2=C1NC(=S)NC2c1ccccc1F (stereo not drawn) as the compound, how does the Potency read?
Answer: inconclusive [inhibitor, single point]

Question: With Cc1ccccc1CSCC(=O)NCc1ccco1 as the compound, how does the Potency read?
Answer: inconclusive [inhibitor, single point]

Question: With CC1CC(C)CN(CCOc2cccc3ccccc23)C1 (stereo not drawn) as the compound, how does the Potency read?
Answer: inactive

Question: For O=C(NCCC1=CCCCC1)c1ccc(F)cc1, which Potency is on record?
Answer: inconclusive [inhibitor, single point]

Question: With CCCCNC(=O)c1ccc2nc(CC)c(N(C)Cc3ccc(OC)cc3)n2c1 as the compound, how does the Potency read?
Answer: active: 16.4 µM

Question: Which Potency does the source give for N#C/C(=C/c1ccc(N2CCOCC2)o1)c1ccc(Cl)cc1 here?
Answer: inconclusive [inhibitor, single point]

Question: Which Potency does the source give for Cc1ccc(S(C)(=O)=NS(=O)(=O)c2cccc3nsnc23)cc1 (stereo not drawn) here?
Answer: inactive

Question: Which Potency does the source give for CC(C)OCCCNC(=O)c1ccc2c(c1)S(=O)(=O)c1ccccc1C2=O here?
Answer: inactive

Question: With COc1ccc(-c2csc(N3CCN(c4cc(C)nc5ccccc45)CC3)n2)cc1OC as the compound, how does the Potency read?
Answer: active: 14.6 µM

Question: With O=C(c1ccc(S(=O)(=O)Nc2ccccc2)cc1)N1CCC1 as the compound, how does the activity change, negative = growth inhibition read?
Answer: inconclusive: -32.2% [inhibitor]

Question: With NC(=S)N/N=C/c1coc2ccc(O)cc2c1=O as the compound, how does the Potency read?
Answer: inconclusive [inhibitor, single point]

Question: For Cc1ccc(NC(=O)c2ccc(NC(=O)N3CCSc4ncccc43)cc2)c(C)c1, which Potency is on record?
Answer: inconclusive [inhibitor, single point]

Question: Which Potency does the source give for COc1ccc(C)cc1-n1cnc2cc(C(=O)NC3CCCC3)ccc21 here?
Answer: inconclusive [inhibitor, single point]

Question: Which Potency does the source give for CCOc1ccc(CN2CCN(Cc3cccn3-c3ncccn3)CC2CCO)cc1 (stereo not drawn) here?
Answer: inactive

Question: For Brc1ccc(/C=C2\C=Cc3ccccc32)cc1, which Potency is on record?
Answer: inconclusive [inhibitor, single point]

Question: For CN(Cc1nc(-c2ccc(C(F)(F)F)cc2)no1)C1CCOCC1, which Potency is on record?
Answer: inactive

Question: With CCCCn1c(SCC(=O)Nc2cc(C)on2)nc2c1c(=O)n(C)c(=O)n2C as the compound, how does the activity change, negative = growth inhibition read?
Answer: inconclusive: -32.1% [inhibitor]

Question: With Cc1cc(C(=O)Nc2c(C)nc3ccccn3c2=O)ccc1[N+](=O)[O-] as the compound, how does the Potency read?
Answer: inactive

Question: Which Potency does the source give for Cc1cc([N+](=O)[O-])ccc1NCc1cccc([N+](=O)[O-])c1 here?
Answer: inconclusive [inhibitor, single point]

Question: Which Potency does the source give for O=C(CSc1nc2c([nH]c3ccccc32)c(=O)n1-c1ccc(Cl)cc1)NCC1CCCO1 (stereo not drawn) here?
Answer: inactive

Question: With CCOc1ccc(/C=C/c2nc(C#N)c(NCCc3ccccc3)o2)cc1 as the compound, how does the Potency read?
Answer: active: 1.3 µM

Question: For NS(=O)(=O)c1ccc(NC(=O)COC(=O)c2cc([N+](=O)[O-])ccc2Cl)cc1, which Potency is on record?
Answer: inactive

Question: For Cc1ccccc1Nc1c(-c2cccs2)nc2cccc(C)n12, which Potency is on record?
Answer: active: 14.6 µM

Question: With O=C(Nc1ncc(S(=O)(=O)c2ccc([N+](=O)[O-])cc2)s1)c1ccc2ccccc2c1 as the compound, how does the Potency read?
Answer: active: 16.4 µM

Question: With O=C(OC1Cc2c(O)cc(O)cc2OC1c1cc(O)c(O)c(O)c1-c1c(C2Oc3cc(O)cc(O)c3CC2O)cc(O)c(O)c1O)c1cc(O)c(O)c(O)c1 (stereo not drawn) as the compound, how does the Potency read?
Answer: inconclusive [inhibitor, single point]

Question: Which Potency does the source give for COc1ccc(Cl)cc1C(=O)C1CCCN(Cc2cnc(N3CCOCC3)s2)C1 (stereo not drawn) here?
Answer: inconclusive [inhibitor, single point]

Question: For Cc1ccc(SC(CC(=O)c2ccc(C)cc2)C(=O)O)cc1 (stereo not drawn), which Potency is on record?
Answer: inconclusive [inhibitor, single point]

Question: With C=CCSc1nc2sc3c(c2c(=O)n1CC)CCc1ccccc1-3 as the compound, how does the Potency read?
Answer: active: 10 µM

Question: For COC(=O)C(c1ccccc1Cl)N1CCc2sccc2C1 (stereo not drawn), which Potency is on record?
Answer: inconclusive [inhibitor, single point]

Question: With Cc1nc(NC(=O)C2CC2)sc1C(=O)Nc1ccccc1Cl as the compound, how does the Potency read?
Answer: inconclusive [inhibitor, single point]

Question: For COc1ccccc1NC(=O)Cn1c(=O)n(CCCCCC(=O)NCc2ccccc2)c(=O)c2sccc21, which Potency is on record?
Answer: inconclusive [inhibitor, partial curve, poor fit]

Question: Which Potency does the source give for COc1ccc(/C=C(/NC(=O)c2ccc(C)cc2)C(=O)NCc2ccncc2)cc1 here?
Answer: inactive

Question: Which Potency does the source give for O=C(/C=C/c1cccs1)NC(=S)Nc1ccc(S(=O)(=O)Nc2ccccc2C(F)(F)F)cc1 here?
Answer: inconclusive [inhibitor, single point]

Question: Which Potency does the source give for COc1ccccc1N1CCN(C(=O)c2cc(C(C)(C)C)oc2C)CC1 here?
Answer: inconclusive [inhibitor, partial curve]

Question: Which Potency does the source give for O=C(O)c1cccc(-n2nc(-c3ccc(Cl)c([N+](=O)[O-])c3)c3ccccc3c2=O)c1 here?
Answer: inconclusive [inhibitor, single point]
